We go through 37 molecules from US12551573B2, “Compositions and methods for the targeting of PCSK9” (Scribe Therapeutics Inc., priority 2022, dated 2026).

Sequences and labels used below:
B1: DOMAIN_4921 (protein, listed as Callithrix sp.)
chain: MPLGSELFRDVAIVFSQEEWQWLAPAQRDLYRDVMLETYSNLVSLGLAISKPDVISFLEQGKEPWMVERVVAGGLCPEAEL
B2: DOMAIN_4922 (protein, listed as Callithrix sp.)
chain: MPLGSELFRDVAIVFSQEEWQWLAPAQRDLYRDVMLETYSNLVSLGLAISKPDVISFLEQGKEPWMVERVVAGGLCPVLES
B3: DOMAIN_5201 (protein, listed as Aotus trivirgatus)
chain: MHLTAWPQKSVTFEDVAVYFTQAEWDGLSPAQRTLYRDVMLENYGNVASLGFPLLKPAVISQLEGGGELGGPSPLAAGTGL
B4: DOMAIN_5485 (protein, listed as Aotus trivirgatus)
chain: REPAQVLVAAESLIDNEEGYVTFEDVAVYFSQEEWRLLDEAQRLLYRNVMLENFSLMASLGLASSKTHEITQLESWEEPFV
B5: DOMAIN_5031 (protein, listed as Callithrix sp.)
chain: MAHMAFRDVAVDFTQDEWRLLSPAQRTLYREVMLENYSNLVSLGISFSKPEIITQLEQGKETWREEKKCPPATCPDPEPEL
B6: DOMAIN_5217 (protein, listed as Aotus trivirgatus)
chain: MAHMAFRDVAVDFTQDEWRLLSPAQRTLYREVMLENYSNLVSLGISFSKPEIITQLEQGKETWREEKKCPPATCPADPEPE
B7: DOMAIN_5518 (protein, listed as Aotus trivirgatus)
chain: MATALTDPAQVSVTFDDVAVTFTQEEWGQLDLAQRTLYQEVMLENCGLLVSLGCPVPRPELIYHLEHGQEPWTRKEDLSQG
B8: DOMAIN_4515 (protein, listed as Callithrix sp.)
chain: MAAGQPEARPQVSLTFEDVAVLFTRDEWRKLAPSQRNLYRDVMLENYRNLVSLGLPFTKPKVISLLQQGEDPWKVEKDCFG
B9: DOMAIN_4589 (protein, listed as Callithrix sp.)
chain: MDTVALEDVAVNFTQEEWALLGPSQKKLYRDVMQETIRNLDCIKMISEDQNIEDQYKNPKKNLRCRMAERLSESKDNSQCG
B10: DOMAIN_5103 (protein, listed as Callithrix sp.)
chain: IREFGGMGAGIANIWSFQGSVTFRDVAIDFSQEEWKWLQPAQRDLYRCVMLENYGHLVSLGLSISKPDVVSLLEQGKEPWL
B11: DOMAIN_5096 (protein, listed as Callithrix sp.)
chain: MTMLQDSFSFDDLSVDFTQKEWQLLDPSQKNLYKDVMLENYSSLVSLGYEAMKPDVIFKLEQGEEPWIGDEEIPSSWSPDI
B12: DOMAIN_4705 (protein, listed as Callithrix sp.)
chain: MNMEGLVMFQDLSIDFSQEEWECLNPAQKDLYRDVMMENYSSLLSLGLSIPKPDVISLLEQGKEPWMVSRDILGGWCPDRL
B13: DOMAIN_5235 (protein, listed as Aotus trivirgatus)
chain: MNMEGLVMFQDLSIDFSQEEWECLNPTQKDLYRDVMMENYSSLLSLGLSIPKPDVISLLEQGKEPWMVSRDVLGGWCPDRL
B14: DOMAIN_5060 (protein, listed as Callithrix sp.)
chain: GENLESRVTLGSPAAESQELLTFKDVSVDFTQEEWGQLAPAHRNLYREVMLENYGNLVSVGYQLSKPGLISQLEKGEEPWL
B15: DOMAIN_5246 (protein, listed as Aotus trivirgatus)
chain: MAQESVMFSDVSIDFSQEEWECLNDDQRDLYRDVMLENYSNLVSMAGHSISKPNVISYLEQGKEPWLVDRELTRGQWPALE
B16: DOMAIN_4534 (protein, listed as Callithrix sp.)
chain: CFSGEERMAAGHPPRWPQELVTFEDVSVDFSQEEWELLDPAQKELYREVTLENYRNLVSLEALKNPCADAGMEEGPFSTAH
B17: DOMAIN_5299 (protein, listed as Aotus trivirgatus)
chain: GRSPRKTDQFCNSKNMVPGSVTFRDVAIDFSQEEWECLQPAQRTLYRDVMLENYSHLISLGSSISKPDVITLLEQEKEPWM
B18: DOMAIN_4580 (protein, listed as Callithrix sp.)
chain: DSVAFEDVAVNFTQEEWALLDRSQKKLYREVMQETLRNLTSIGKTWSNQNAEERHQNPRRNLRRLIGERLFQSKESHQHAE
B19: DOMAIN_2380 (protein, listed as Pongo sp.)
chain: MIQAQESITLEDVAVDFTWEEWQLLGAAQKDLYRDVMLENYSNLVAVGYQASKPDALFKLEQGEQPWTTEDGIHSGACSDM
B20: DOMAIN_2942 (protein, listed as Hylobates sp.)
chain: MDSVAFEDVAVNFTQEEWALLDPSQKNLYREVMQETVRNLASIGKKWNNQYIEDEHQNPRKNLRRLIGERLSESKESHQHG
B21: DOMAIN_5527 (protein, listed as Aotus trivirgatus)
chain: MNVEVLKVISQDLVTFKDVAIDFSQEEWQWMNPAQKRLYRSMMLENYQSLVSLGLCVSKPYVISLLEQGREPWEMTSEMTR
B22: DOMAIN_5029 (protein, listed as Callithrix sp.)
chain: MAFRDVAVDFTQDEWRLLSPAQRTLYREVMLENYSNLVSLGISFSKPEIITQLEQGKETWREEKKCPPATCPADPEPELCL
B23: DOMAIN_4748 (protein, listed as Callithrix sp.)
chain: MINYQTPVSFRDVVVGFTQEEWHRLNPTQRALYRDVMLETYSNLVSVGYEGTKPDVILRLEQEEAPWIGEAACLGCHCWED
B24: DOMAIN_5273 (protein, listed as Aotus trivirgatus)
chain: MINYQTPVSFKDVVVGFTQEEWHRLNPTQRALYRDVMLETYSNLVSVGYEGTKPDVILRLEQEEAPWIGEAACLGCHCWED
B25: DOMAIN_4751 (protein, listed as Callithrix sp.)
chain: MINYQTPVSFRDVVVGFTQEEWHRLNPTQRALYRDVMLETYSNLVSVGYEGTKPDVILRLEQEEAPWIGEAACLGCHCWGK
B26: DOMAIN_4749 (protein, listed as Callithrix sp.)
chain: MINYQTPVSFRDVVVGFTQEEWHRLNPTQRALYRDVMLETYSNLVSVGYEGTKPDVILRLEQEEAPWIGEAACLGCHCWGI
B27: DOMAIN_5489 (protein, listed as Aotus trivirgatus)
chain: MAAAALREPAQGYVTFEDVAVYFSQEEWRLLDEAQRLLYRNVMLENFSLMASLGLASSKTHEITQLESWEEPFVPAWDVMT
B28: DOMAIN_4687 (protein, listed as Callithrix sp.)
chain: MPGPPGSLEMDPLTFRDVAIEFSLEEWQCLDTAQQNLYRNVMLENYKNLAFLGIAVSKPDLITRLEKEKEPWKMKRHRMVD
B29: DOMAIN_5337 (protein, listed as Aotus trivirgatus)
chain: CGMFQVSVAFEDVAVTFTQEEWALLDPSQKTLYRDVMQENFRNLASVGKKWKAQNIYVEYKNLRRNLRNLRGKRLFESKED
B30: DOMAIN_5716 (protein, listed as Aotus trivirgatus)
chain: MDVAQEQVTFQDVAIYFSWEEWECLEPSQRALYRDVMLDNFSNVAALGFCSPRPDLVSRLEQWEEPWVEDRDRPELQAVQR
B31: DOMAIN_5370 (protein, listed as Aotus trivirgatus)
chain: TMTTVSSTARPQESVAFDDVAVYFTKKEWAIMVPDQRALYRDVMLENYEAVAFVVPPTSKPALVSHLEQGKEPCFTQPQGV
B32: DOMAIN_221 (protein, listed as Pan paniscus)
chain: MMFQDSVAFEDVAVTFTQEEWALLDPSQKNLYRDVMQETFRNLASIGKKWKPQNIYVEYENLRRNLRIVGERLFESKEGHQ
B33: DOMAIN_4574 (protein, listed as Callithrix sp.)
chain: MFQDSVAFEDVAVTFTQEEWALLDPSQKTLYRDVMQENFRNLASVGKKWKAQNIYVEYKNLRRNLRNLMGKRLFESKEDHQ
B34: DOMAIN_4722 (protein, listed as Callithrix sp.)
chain: MALRSVIFSDISIDFSPEEWEYLDLEQKDLYRDVMLENYSNLVSLGCFISKPDVISLLEQGKEPWKVVRKRRRQYPDLETK
B35: DOMAIN_5248 (protein, listed as Aotus trivirgatus)
chain: MAHRSVMFSDISIDFSPEEWEYLDLEQKDLYRDVMLENYSNLVSLGCFISKPDVISLLEQGKEPWKVVRKRRRQYPDLETK
B36: DOMAIN_4665 (protein, listed as Callithrix sp.)
chain: MTPGPPGSLEMEPLTFKDVAIEFCLEEWQCLDTAQQDLYRNVMLENYRNLVFLGIAVSKPDLITCLEQGKVPWNRKRHEMV
B37: DOMAIN_4978 (protein, listed as Callithrix sp.)
chain: MAAAALRLPAQGTVTFEDVAVKFSQEEWSILTEAQRCLYHDVMLENLALISSLGCWYGAKDETPSKQTLSIQQQSPLRSHW

This assay concerns HBEGF locus. Format: cell-based, human. Conditions: high-throughput screen of dXR repression of the HBEGF gene; change in abundance of each domain in the library before and after diphtheria toxin selection.
With B1, the “Log2 (fold change)” value is reported as 3.5291.

For B2, the “Log2 (fold change)” value came out at 4.0258.

For the molecule B3, the “Log2 (fold change)” value amounted to 3.3658.

With B4, the “Log2 (fold change)” value amounted to 2.7826. Take B5: the “Log2 (fold change)” value is 2.8605. Turning to B6, the “Log2 (fold change)” value is reported as 2.4689. With B7, the “Log2 (fold change)” value is given as 2.8542. Turning to B8, the “Log2 (fold change)” value worked out at 4.2166. The same measure for B9: 2.507. On to B10, for which the “Log2 (fold change)” value was found to be 2.1016. For B11, the “Log2 (fold change)” value was found to be 2.456. Consider B12, for which the “Log2 (fold change)” value was 3.5232.

Regarding B13, the “Log2 (fold change)” value is reported as 3.437. Take B14: the “Log2 (fold change)” value was 2.6043. The same measure for B15: 2.7473. For the molecule B16, the “Log2 (fold change)” value worked out at 2.6242. For the molecule B17, the “Log2 (fold change)” value was 2.7399. B18: the “Log2 (fold change)” value amounted to 2.9618.

As for B19, the “Log2 (fold change)” value came out at 3.2024. Take B20: the “Log2 (fold change)” value turned out to be 3.3658.

For B21, the “Log2 (fold change)” value was 3.1092. The same measure for B22: 2.2642.

In the case of B23, the “Log2 (fold change)” value was determined as 3.0477. As to B24, the “Log2 (fold change)” value amounted to 2.4023. On to B25, for which the “Log2 (fold change)” value is listed as 3.238. As for B26, the “Log2 (fold change)” value was 3.5545. In the case of B27, the “Log2 (fold change)” value is given as 2.6774. The same measure for B28: 5.2288. The same measure for B29: 3.7616. Take B30: the “Log2 (fold change)” value stood at 3.0606. For B31, the “Log2 (fold change)” value is 3.0452. Regarding B32, the “Log2 (fold change)” value is reported as 3.5533. The same measure for B33: 2.7135; for B34: 4.8639. The same measure for B35: 4.1052; for B36: 3.2985. Consider B37, for which the “Log2 (fold change)” value is 2.7787.
